Laboratory results taken from ChEMBL document CHEMBL4888484, “Replenishing the malaria drug discovery pipeline: Screening and hit evaluation of the MMV Hit Generation Library 1 (HGL1) against asexual blood stage Plasmodium falciparum ,using a nano luciferase reporter read-out” (2022).
In all, about 150,000 compounds went through this assay and about 540 (0.36%) showed an effect of 50% or more. Some of the results follow.

tested on: Plasmodium falciparum; assay: Primary screen in NF54 nanoGlo assay, in single point, at 2uM, 72h; a lower Z score goes with more inhibition; format: functional, Erythrocyte; conditions: timepoint 72 hour

| Compound | % Inhibition [%] | Z score |
| --- | --- | --- |
| O=C(c1cccn1C1CCCC1)N1CCOCC(F)(F)C1 | 0 | -0.05 |
| CN(C)[C@H]1[C@H](Nc2ccnc3ccccc23)[C@@H]2CCO[C@@H]21 | 12 | -1.1 |
| COCCN(CCOC)c1ncnc2c1CCC2 | -11 | 1.16 |
| CN1CC[C@H]2CC[C@@H](C1)N2c1ccnc(C(=O)NCc2cccnc2)c1 | -10 | 2.17 |
| CCN(CC)C(=O)c1cnc2nc(C)ccc2c1Nc1cccc(OC(F)(F)F)c1 | -1 | 0.15 |
| O=C(Nc1cc(NC(=O)c2cccc3ccccc23)c(OCC(F)(F)F)cc1OCC(F)(F)F)c1cccc2ccccc12 | -9 | 1.45 |
| C#CCCC1(CCC(=O)N2CC(C)(C)[C@H]2c2cccnc2)N=N1 | -16 | 1.98 |
| CCOCC(=O)N1CCC(C(=O)N2CC(c3nccs3)C2)CC1 | -13 | 1.97 |
| CNC[C@H](C)CNC(=O)Cc1ccc(F)c(Br)c1 | -9 | 1.03 |
| CN1CCN(c2nc3c(c(Oc4cccc(F)c4)n2)CN(S(=O)(=O)c2cccc(Cl)c2)CC3)CC1 | -5 | 0.66 |
| C#CCNC(=O)CNC1(C(=O)OCC)CCCCC1 | -1 | 0.12 |
| O=C(NC1CC1)N(CC1CC1)C1CCCCC1 | 12 | -1.53 |
| O=C(NCCCO)NC1CCCCC1OC1CCCC1 (stereo unspecified) | 2 | -0.21 |
| CC[C@H](NC1CCN(Cc2ccccc2)CC1)c1ncccc1C | 4 | -0.53 |
| Cc1nn(C(C)C)c(C)c1C(=O)NCc1n[nH]c(N)n1 | -10 | 1.89 |
| Cc1nc(C)n(C[C@H]2CCCCN2Cc2noc(C3CC3)n2)n1 | -20 | 3.82 |
| O=C(O[C@@H](C(=O)Nc1ccc(Cl)cc1C(F)(F)F)c1ccccc1)c1ccc(S(=O)(=O)N2CCCCC2)cc1 | -3 | 0.49 |
| O=C(C[C@H]1CCCCN(Cc2ccccc2)C1=O)N1CCCC1 | -11 | 2.19 |
| CCCc1nnsc1C(=O)N1CCC[C@H](CNC(=O)c2cccs2)C1 | -11 | 2.11 |
| O=C(c1ccc(F)cc1)N1CC2CCC2(Nc2ncc(Cl)cn2)C1 (stereo unspecified) | -8 | 1.08 |
| Cc1nnc([C@H](C)OC(=O)C2=CCCCCC2)o1 | -13 | 1.72 |
| Cc1c(C(=O)N2CCC[C@H]3CN(C)C[C@H]32)nnn1C(C)C | 2 | -0.32 |

| Compound | % Inhibition [%] | Z score |
| --- | --- | --- |
| CN1CC2(CCN(S(=O)(=O)c3ccccc3)CC2)C[C@H]1C(=O)N1CCCC1 | 1 | -0.23 |
| O=C(c1ccoc1)N1CCC(F)(F)[C@@H](COCc2cccnc2)C1 | 0 | 0.09 |
| CC(C)CCNC(=O)[C@H]1CC(=O)OC1(C)C | -18 | 2.37 |
| C[C@@H]1CN(C[C@@H]2CN(C(=O)CCc3cccnc3)C[C@@H]2CO)C[C@H](C)O1 | -1 | 0.13 |
| O=C(NC[C@H]1COCCO1)c1ccnc(C2CC2)c1 | -17 | 1.46 |
| CNC(=O)c1cccc(NCc2ccc(-c3c(F)cccc3F)o2)c1C | -10 | 1.01 |
| CC(C)CCn1cc(C(=O)N[C@@H](C)c2ccc(Cl)cn2)nn1 | -22 | 3.31 |
| O=C(Cn1ccnc1)N(c1ccccc1)C1CCCCC1 | -10 | 1.15 |
| CCNC(=O)N1CCC(Oc2ncnc3c2CCOCC3)CC1 | -16 | 2.45 |
| CC(C)(C)OC(=O)NCC1CCCCC1O (stereo unspecified) | -10 | 0.99 |
| O=c1[nH]c2ncc(Br)cc2n1C1CCCC1 | -3 | 0.48 |
| Cc1nc(Cc2noc(-c3ccc4c(c3)N=S=N4)n2)no1 | -5 | 0.68 |
| Cc1ccc(C)c(NC(=O)c2ccc3c(c2)nnn3Cc2ccccc2C)c1 | -5 | 0.52 |
| Clc1ccccc1NC1(c2nnnn2C2CCCCC2)CCCCC1 | -37 | 4.36 |
| CC(=O)Nc1ccc(-c2noc(C3CCCN(C(=O)C(NC(=O)c4ccco4)C(C)C)C3)n2)cc1 (stereo unspecified) | -4 | 0.5 |
| CCCc1ccc(CNCC2(N(C)C)CCCCC2)o1 | -14 | 1.35 |
| COc1ccc([C@H]2N(C(=O)CN3CCOCC3)CCCN2S(=O)(=O)c2ccc(C)cc2)cc1 | -15 | 2.38 |
| CCOC(=O)C1(CC2CC2)CCN(Cc2ccc(F)cc2)CC1 | -3 | 0.56 |
| Cc1ccc(C)c(N2CCN(c3c(C(=O)N4CCCC4)cnc4ccc(F)cc34)CC2)c1 | -12 | 1.52 |
| C=CCNC(=O)N1CCc2nc(N3CCOCC3)nc(N3CCCCC3)c2C1 | -12 | 1.62 |
| CC(C)(C)OC(=O)N1CCC(CC(N)=O)CC1 | -8 | 1.43 |
